From PubChem BioAssay AID1346428 (National Center for Advancing Translational Sciences (NCATS), 2018) come the findings set out here.

About 1,200 (2.5%) of roughly 48,000 compounds were called active. Roughly 2% stayed inconclusive and do not appear here.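 How the source made its calls: active means activation of at least 60% and not above a set upper limit (about 1 call in 100 departs from these limits); inconclusive means activation of 40% to 60%, or above that upper limit; inactive means activation under 40%.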 The list shows a part of the results.

UniProt O75388, sequence (O75388 whole entry, looked up, the tested form may be a part): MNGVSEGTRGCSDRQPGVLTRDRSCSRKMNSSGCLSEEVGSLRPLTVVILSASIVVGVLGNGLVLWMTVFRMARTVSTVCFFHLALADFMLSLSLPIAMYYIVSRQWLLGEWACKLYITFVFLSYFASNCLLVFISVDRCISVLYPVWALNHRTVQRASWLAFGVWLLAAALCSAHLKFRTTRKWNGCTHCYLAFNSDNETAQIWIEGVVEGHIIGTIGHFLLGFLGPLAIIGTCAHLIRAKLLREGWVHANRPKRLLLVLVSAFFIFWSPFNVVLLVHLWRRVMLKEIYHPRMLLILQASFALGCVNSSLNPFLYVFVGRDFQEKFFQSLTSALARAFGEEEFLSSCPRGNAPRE

The experiment deals with Probable G-protein coupled receptor 32 (Homo sapiens) (UniProt O75388). Briefly: qHTS for Agonists of Human Resolvin D1 Receptor DRV1. Further: 0% is about no effect. Conditions: CHO-K1 GPR32 beta-arrestin PathHunter luminescence, 90 min; at 76.9 µM; hits give high values; zero percent set by DMSO-only wells. Summed up:
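Agonism was scored as beta-arrestin recruitment to ProLink-fused GPR32 in stably transfected CHO-K1 cells, giving a chemiluminescent beta-Gal signal; compounds were incubated 90 min at 37 °C.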
In general terms: qHTS replaces the single test concentration by a dilution series.
As for `Cc1cccc(NC(=O)c2ccc(CN3CC(=O)N4CCCCC4C3=O)cc2)c1C` (stereo not drawn), the activation was inactive: -17%.
To `C[C@H](O)C(=O)C1=Nc2c(nc(N)[nH]c2=O)NC1` belongs inactive: -13.1%.
With `COCCNC(=O)Cn1nc(-c2ccc(C)cc2)c2ccccc2c1=O`, the activation was inactive: -25.9%.
Take `COc1ccc(CNc2nc(-c3ccc(Cl)cc3)cc(C(F)(F)F)n2)cc1`: the activation was inactive: -9.77%.
To `COc1cccc(Cn2nnc3c(=O)[nH]c(C4CCCN(C(=O)c5ccccc5Cl)C4)nc32)c1` (stereo not drawn) belongs inactive: 1.39%; to `CN(C)CCC(c1ccc(Cl)cc1)c1ccccn1` (stereo not drawn), inactive: 9.36%.
To `CCc1ccccc1NC(=O)COCc1cc(-c2ccco2)on1` belongs inactive: -9.5%; to `COC(=O)c1c(-c2ccc(Cl)cc2)noc1N1CCN(c2ccccc2OC)CC1`, inactive: -5.15%.
Consider `COc1ccccc1S(=O)(=O)Cc1ccc(C(=O)N2CCN(c3cc(Cl)ccc3C)CC2)o1`, for which the activation was inactive: 5.89%.
Take `Cc1cc(C)c(Cn2c(=O)n(CCC(=O)NCc3ccc4c(c3)OCO4)c(=O)c3ccccc32)c(C)c1`: the activation is inactive: -6.12%.
To `COc1cc(C2CC(=O)Nc3ccc4ccccc4c32)ccc1OC(=O)C(C)C` (stereo not drawn) belongs inactive: -8.04%; to `CCOc1ccc2c(c1)c(=O)c(C(=O)c1ccc(CC)cc1)cn2CC(=O)Nc1cccc(Cl)c1`, inactive: 11.4%.
To `O=C(NCCc1ccccc1)c1ccc2nc(CCc3ccccc3)oc2c1` belongs inactive: -6.61%.
In the case of `Cc1ccc2occ(CC(=O)N(Cc3ccc(Cl)cc3)Cc3ccco3)c2c1`, the activation was inactive: 7.76%.
On to `Cc1ccc(N2C(=O)[C@@H]3CSC(c4ccc(Cl)cc4)N3C2=O)cc1` (stereo partly drawn), for which the activation is inactive: -1.09%.
Turning to `CCOc1ccc(OCC)c(NC(=O)C2CCN(S(=O)(=O)c3ccc4c(c3)CC(C)N4C(C)=O)CC2)c1` (stereo not drawn), the activation is inactive: 3.22%.
To `COC(=O)CSc1nc2sc3c(c2c(=O)n1-c1ccccc1)C(C)CCC3` (stereo not drawn) belongs inactive: -2.24%; to `CC(C)Oc1ccc(C(=O)Nc2nnc3n2CCS3)cc1`, inactive: -7.8%; to `COc1cc(C2c3c(-c4cc(C)ccc4O)n[nH]c3C(=O)N2Cc2ccco2)cc(OC)c1OC` (stereo not drawn), inactive: -16.5%.
Regarding `CCCc1nn2c(=O)cc(COC(=O)c3cccc(NC(=O)c4ccc(OCC)cc4)c3)nc2s1`, the activation was inactive: -15.7%.
Turning to `O=C(Cn1cc(SCc2ccc(Cl)cc2)c2ccccc21)N1CCOCC1`, the activation is inactive: -21.2%.
To `Cc1cc(Cl)ccc1NS(=O)(=O)c1c(C(=O)N2CCCCCC2)c(C)n(C)c1C` belongs inactive: -15.1%.
To `COc1ccc(NC(=O)CSc2nc3ccccc3n2CC(=O)N(C)C2CCCCC2)cc1` belongs inactive: 0.889%; to `COc1ccc(NC(=O)c2cc(S(=O)(=O)N3CCCC(C)C3)cn2C)c(OC)c1` (stereo not drawn), inactive: -1.83%; to `O=c1n(Cc2ccccc2)nc2n1-c1cc(Cl)ccc1OC2`, inactive: -8.88%.
Turning to `Cc1c2cnn(-c3ccccc3)c(=O)c2c(C)n1CCCC(=O)Nc1cccc(F)c1`, the activation is inactive: 6.48%.
For the molecule `Cc1c(Cl)cccc1NC(=O)CSc1nc(=O)[nH]c2c1CCC2`, the activation was inactive: -5.78%.
Consider `O=S(=O)(c1cccc(Cl)c1)n1c(/C=C/c2ccccc2Cl)nc2ccccc21`, for which the activation was inactive: 13.1%.
Consider `Cc1ccc(C)c(Cn2c3ccccc3c3cnn(CC(=O)NC4CCCCCC4)c(=O)c32)c1`, for which the activation is inactive: 17.4%.
To `Cc1ccc(-c2c3c(=O)n(C)c(=O)n(C)c3c3c(-c4cccc(C)c4)nc4ccccc4n23)cc1` belongs inactive: 4.68%.
To `Cc1cc(C)c(S(=O)(=O)NCC2CCC(C(=O)NCCc3ccccc3)CC2)c(C)c1` (stereo not drawn) belongs inactive: -15.4%; to `COC(=O)c1ccccc1NC(=O)c1ccc2c(c1)CCN2S(=O)(=O)c1ccc(Cl)cc1`, inactive: -0.328%; to `COc1ccc(CN(Cc2ccco2)C(=O)COc2ccccc2Cl)cc1`, inactive: -7.91%.
To `COc1ccc(-c2cc(OC(=O)c3cccc(Cl)c3)c3c(C)oc(C)c3c(=O)c2)cc1OC` belongs inactive: -13.3%; to `N#Cc1nc(/C=C/c2ccc(F)cc2)oc1N1CCCCCC1`, inactive: 8.48%.
For the molecule `COC1=CC(=O)C[C@@H](C)[C@]12Oc1c(Cl)c(OC)cc(OC)c1C2=O`, the activation is inactive: -0.864%.
Turning to `CC(NS(=O)(=O)c1ccc2c(c1)CCN2C(=O)CCCC(=O)O)c1ccccc1` (stereo not drawn), the activation was inactive: 0.126%.
With `Cc1ccccc1NC(=O)CSc1nc(-c2cccs2)nc2cc(=O)[nH]n12`, the activation is inactive: 6.21%.
With `COc1ccc(-n2nc(C(=O)Nc3cc(C)c(Cl)cc3OC)c3c4ccccc4n(C)c3c2=O)cc1`, the activation is inactive: -12.5%.
With `CCc1c(C)sc(NC(=O)c2cc3nc(-c4ccc(OC)cc4)cc(C(F)(F)F)n3n2)c1C(=O)OC`, the activation is inactive: -0.237%.
To `CCN(CC)c1ccc(NC(=O)Cn2nc3c(cc2=O)CCCC3)c(C)c1` belongs inactive: -21.2%; to `COc1cc(OC)cc(C(=O)N2CCN(C(=O)COc3ccc(C)cc3)CC2)c1`, inactive: -6.08%; to `COc1cccc(-n2c(SCC(=O)Nc3ccc4c(c3)OCO4)nc3c([nH]c4ccccc43)c2=O)c1`, inactive: -4.15%.
To `CCCNC(=O)c1ccc(Cn2c(SCC(N)=O)nc3ccccc3c2=O)cc1` belongs inactive: -5.5%; to `COc1ccc(OC)c(NC(=O)c2cc3cccc(OC)c3oc2=O)c1`, inactive: 24.7%; to `COc1cccc(CNC(=O)Cn2ncn3c(cc4ccccc43)c2=O)c1`, inactive: -1.19%.
To `Cc1nn(-c2ccccc2)c(OC(=O)c2ccc(Cl)cc2)c1S(=O)(=O)c1ccccc1` belongs inactive: 29%; to `CCOc1ccccc1C(=O)N1CCc2cc(OC)c(OC)cc2C1COc1ccc(OC)cc1` (stereo not drawn), inactive: -4.45%; to `Cc1ccc(-c2nc3cccc(C)n3c2Nc2ccc3c(c2)OCO3)o1`, inactive: -20.5%.
On to `CCC(=O)Oc1c(Sc2ccc(C)cc2)c(C)nn1-c1ccccc1`, for which the activation was inactive: -1.69%.
Turning to `COc1ccc(CNS(=O)(=O)c2cc3c(cc2Cl)NC(=O)CO3)cc1`, the activation is inactive: -0.859%.
For the molecule `CC(C)CC(=O)Nc1ccc2nc(SCC(=O)N3CCOCC3)sc2c1`, the activation is inactive: 0.677%.
To `O=C(CSc1nc(=O)n(CCN2CCOCC2)c2c1CCC2)Nc1ccc(F)cc1F` belongs inactive: -13.1%.
